According to the supplement of paper PMC12217912:
The other results are listed elsewhere or left out. Sequences were assembled here from the parent chain. Inactive controls read about 0.05.

B1: TEV protease; numbered along this chain (parent)
chain: MGESLFKGPRDYNPISSSICHLTNESDGHTTSLYGIGFGPFIITNKHLFRRNNGTLVVQSLHGVFKVKDTTTLQQHLVDGRDMIIIRMPKDFPPFPQKLKFREPQREERICLVTTNFQTKSMSSMVSDTSCTFPSGDGIFWKHWIQTKDGQCGSPLVSTRDGFIVGIHSASNFTNTNNYFTSVPKNFMELLTNQEAQQWVSGWRLNADSVLWGGHKVFMVKPEEPFQPVKEATQL

Variants of: B1
Experiment: raw area under fraction-flipped curve 0-4 h after induction (AUC4h, not background-subtracted), DNA-recorder readout of cleavage of the substrate (dimensionless); higher = more cleavage of the substrate by the protease variant
Settings: temperature: 34 °C; time window: 0-4 h after rhamnose induction
Procedure: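 In vivo DNA recorder in E. coli TOP10(DE3) ΔrhaA at 34 °C. Each TEVp single-site mutant (parent TEVp 0) is paired with a single-site variant of the 7-mer TEVs (canonical ENLYFQ|S). The substrate sits between flexible linkers in a Bxb1-sfGFP-TEVs-SsrA fusion, so cleavage stabilises Bxb1 and speeds flipping of a recombination array, read by NGS. The value is the raw area under the fraction-flipped curve over 0-4 h after rhamnose induction (AUC4h), with ≥20 reads per time point. It is not background-subtracted; inactive controls average about 0.047.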
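Further: Bxb1 expression induced with 0.2% (w/v) L-rhamnose at OD600 near 0.5, cultures sampled hourly, flipped fraction per protease–substrate barcode pair counted by paired-end Illumina sequencing.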

| Variant | area with substrate ECLYFQS | area with substrate EFLYFQS | area with substrate EHLYFQS | area with substrate EILYFQS | area with substrate EKLYFQS | area with substrate ELLYFQS | area with substrate EMLYFQS | area with substrate EPLYFQS | area with substrate EQLYFQS | area with substrate ESLYFQS | area with substrate EVLYFQS | area with substrate ERLYFQS | area with substrate EWLYFQS | area with substrate EDLYFQS | area with substrate EGLYFQS | area with substrate ETLYFQS | area with substrate EELYFQS | area with substrate EYLYFQS |
| --- | --- | --- | --- | --- | --- | --- | --- | --- | --- | --- | --- | --- | --- | --- | --- | --- | --- | --- |
| F6V | 0.093 | 0.166 | 0.143 | 0.139 | 0.105 | 0.0823 | 0.154 | 0.155 | 0.112 | 0.137 | 0.101 | – | – | – | – | – | – | – |
| F6Y | 0.0757 | – | – | – | 0.039 | – | – | – | – | 0.0517 | – | 0.0608 | 0.0624 | – | – | – | – | – |
| R106T | 0.114 | 0.0922 | – | 0.139 | 0.0999 | 0.0977 | 0.0875 | – | 0.148 | 0.101 | 0.112 | 0.108 | – | 0.118 | 0.108 | 0.0941 | – | – |
| N45C | 0.118 | – | 0.096 | – | – | 0.113 | 0.123 | 0.117 | – | 0.105 | 0.0932 | 0.127 | 0.105 | 0.119 | – | – | 0.14 | – |
| N45R | 0.0633 | – | 0.0582 | 0.0571 | 0.0639 | 0.0691 | 0.0603 | 0.0569 | 0.0577 | 0.0611 | 0.0519 | 0.0704 | 0.039 | 0.0651 | 0.0586 | – | 0.0568 | 0.0504 |
| N172E | 0.0738 | – | – | 0.0634 | – | – | – | – | 0.055 | 0.0678 | 0.0632 | – | – | – | – | – | – | – |
| G153P | 0.0454 | 0.0392 | – | 0.0358 | – | – | 0.0456 | – | 0.0392 | – | 0.0423 | 0.051 | – | – | – | – | – | – |
| S158D | 0.0785 | 0.0839 | 0.0843 | – | – | – | 0.0928 | – | 0.112 | 0.0748 | 0.0794 | 0.0836 | – | – | 0.0727 | – | 0.0924 | – |
| S158I | 0.0345 | – | – | 0.0492 | – | 0.0409 | – | 0.0094 | 0.0498 | 0.0839 | – | – | 0.0481 | – | – | – | – | – |
| D11N | 0.0827 | 0.132 | 0.0948 | 0.0945 | 0.111 | 0.0912 | 0.0941 | – | 0.118 | 0.083 | 0.0996 | 0.164 | 0.0874 | 0.118 | 0.092 | – | – | 0.113 |
| D11Y | 0.102 | – | 0.0819 | 0.086 | 0.0867 | 0.0802 | 0.0973 | 0.104 | 0.135 | 0.107 | 0.107 | 0.0754 | 0.0753 | 0.11 | 0.0901 | 0.107 | 0.108 | 0.0156 |
| T44E | 0.0178 | – | 0.043 | 0.0437 | 0.0495 | 0.0412 | 0.0415 | – | – | 0.0598 | 0.0403 | 0.0288 | 0.0226 | 0.04 | 0.0369 | – | 0.0437 | – |
| T44H | 0.0468 | 0.0766 | – | – | 0.0454 | 0.052 | – | 0.0524 | 0.0687 | 0.0583 | 0.0584 | 0.0324 | 0.0362 | 0.0582 | – | 0.0563 | 0.057 | 0.0676 |
| Q227S | 0.114 | 0.108 | – | 0.0904 | – | – | 0.125 | 0.121 | 0.0898 | 0.0589 | 0.103 | 0.0809 | 0.102 | 0.161 | 0.0915 | 0.126 | – | 0.112 |
| P155N | 0.0513 | 0.0486 | 0.0367 | 0.0426 | 0.0475 | 0.0589 | 0.035 | – | 0.0523 | 0.0454 | 0.0497 | 0.0399 | 0.0486 | – | 0.0569 | – | 0.0544 | 0.0559 |
| P93A | 0.103 | – | 0.113 | 0.0865 | – | 0.105 | 0.144 | 0.103 | 0.133 | 0.107 | 0.108 | – | – | 0.117 | 0.103 | – | – | – |
| D149V | 0.0913 | – | – | 0.0898 | 0.105 | – | – | – | – | 0.0844 | – | – | – | 0.113 | – | – | – | 0.0989 |
| P225V | 0.094 | 0.103 | – | 0.107 | 0.0975 | 0.0942 | 0.128 | – | 0.12 | 0.0986 | 0.101 | 0.0977 | – | – | 0.0847 | 0.111 | 0.149 | 0.119 |
| G166L | 0.0269 | – | – | – | 0.039 | – | 0.0608 | – | 0.0425 | 0.0481 | 0.0518 | – | 0.0409 | 0.0478 | 0.047 | – | 0.0505 | – |
| I19N | 0.0959 | – | 0.0867 | 0.0739 | 0.0636 | – | 0.076 | – | 0.087 | 0.08 | 0.0701 | 0.118 | 0.0726 | 0.0631 | 0.0639 | 0.0711 | 0.0701 | 0.0764 |
| S60M | 0.0938 | – | 0.0985 | 0.112 | – | 0.0722 | 0.11 | 0.137 | 0.148 | 0.102 | 0.0864 | 0.0973 | 0.0884 | 0.139 | 0.119 | 0.126 | 0.126 | 0.116 |
| Q146I | 0.104 | – | 0.111 | 0.0926 | 0.113 | – | – | 0.122 | 0.143 | 0.126 | 0.11 | – | – | 0.16 | 0.1 | – | 0.141 | – |
| F65M | 0.0944 | – | 0.0993 | 0.0864 | 0.106 | – | 0.0898 | 0.105 | – | 0.095 | 0.0901 | 0.09 | 0.0834 | 0.127 | 0.0885 | 0.0873 | 0.115 | 0.112 |
| N24M | 0.116 | – | – | 0.0851 | 0.0858 | – | 0.0969 | – | 0.1 | – | 0.0778 | 0.0979 | – | – | – | 0.098 | 0.116 | – |
| P14N | 0.108 | – | – | 0.0742 | – | 0.102 | 0.0811 | 0.0955 | 0.0961 | 0.0683 | 0.0843 | – | – | – | 0.0828 | – | – | 0.0851 |
| T147P | 0.0643 | 0.0076 | – | 0.0485 | 0.0761 | 0.0732 | – | – | 0.08 | 0.0765 | 0.0647 | 0.0688 | 0.0658 | 0.0802 | 0.0535 | – | – | 0.0839 |
| T147I | 0.0791 | 0.0792 | – | 0.0868 | 0.0784 | – | 0.104 | 0.0917 | 0.0924 | 0.0726 | 0.0625 | 0.0709 | 0.0716 | – | – | 0.0947 | 0.0702 | 0.0892 |
| T147G | 0.0709 | – | 0.0835 | 0.0574 | 0.0655 | – | 0.0762 | – | 0.0688 | 0.076 | 0.0781 | 0.0634 | – | – | – | 0.073 | 0.0756 | 0.0632 |
| T23H | 0.0725 | 0.0832 | 0.115 | 0.0962 | – | 0.0849 | 0.0939 | – | 0.114 | 0.119 | 0.0985 | – | 0.083 | – | 0.0819 | 0.0937 | 0.0936 | – |
